# From PubChem BioAssay AID1347073 (National Center for Advancing Translational Sciences (NCATS), 2019)
# The campaign covered roughly 45,000 compounds. About 200 (0.44%) were called active. About 7% were inconclusive and are not listed. The call rests on the fitted dose curve; in most records, active means well fitted activation curve with a large enough effect; inconclusive means small, poorly fitted or top-dose-only effect; inactive means no such curve, though single readings can be large or run the other way. The list shows a part of the results.
# Assay: qHTS of TDP-43 Inhibitors: NCGC Sytravon Library Screen; further: 0% is about no effect; nearly all actives have a fitted effect of over 55% in size
# Conditions: yeast TDP-43 toxicity rescue, BacTiter-Glo growth, 24 h; series mostly up to 46.1 µM; growth rescue (activation): at the top concentration
# How it was run: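 TDP-43-expressing yeast, pregrown in raffinose, seeded at OD600 0.02 in galactose medium with compound for 24 hr at 30 deg C. Growth read by BacTiter-Glo luminescence, so rescue of toxicity appears as activation.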
row,Structure (SMILES),growth rescue (activation)
1,Cc1cc(NC(=O)CSc2nnnn2-c2ccc(C)c(C)c2)no1,inactive: -0.189%
2,COC(=O)c1ccc(NC(=O)CN(c2ccc3c(c2)OCO3)S(C)(=O)=O)cc1,inactive: 2.33%
3,COc1ccc(/C(O)=C/C(=O)C(=O)NNC(=O)c2ccccc2)cc1,inactive: -22.8%
4,CC(=O)Nc1ccc(C(=O)OCC(=O)N2CCCC2)cc1,inactive: 11.5%
5,COc1cc(OC)cc(C(=O)NC2CC3CCC(C2)N3Cc2ccco2)c1 (stereo not drawn),inactive: 2.78%
6,COc1ccc(CNC(=O)C(C)c2ccc([N+](=O)[O-])cc2)cc1 (stereo not drawn),inactive: 21.3%
7,COc1ccc(OC)c(NC(=O)C(CCSC)NS(=O)(=O)c2cccs2)c1 (stereo not drawn),inactive: 5.8%
8,Cc1onc(C(=O)N2CCN(c3ccccc3F)CC2)c1-c1ccccc1Cl,inactive: 13.4%
9,Cc1cc(F)ccc1C(O)c1ncc(-c2cccc(OCc3ccccc3)c2)[nH]1 (stereo not drawn),inactive: 3.82%
10,COc1ccc(Cl)cc1N(C(=O)c1ccco1)C(C(=O)NC1CCCC1)c1ccncc1 (stereo not drawn),inactive: 5.54%
11,O=C(O)C1Cc2ccccc2CN1S(=O)(=O)/C=C/c1ccccc1 (stereo not drawn),inactive: 0.466%
12,COc1ccccc1C(=O)NNC(=O)Cc1ccccc1,inactive: -5.17%
13,Cn1cnnc1SCC(=O)Nc1ccc(Cl)cn1,inactive: -6.3%
14,Nc1cc(S(=O)(=O)N2CCCCC2)ccc1N1CCOCC1,inactive: -2.93%
15,O=C(CN1C(=O)C2C3C=CC(C3)C2C1=O)Nc1nncs1 (stereo not drawn),inactive: -9.93%
16,CCCc1nc2nc(C)c(NS(=O)(=O)c3ccc4c(c3)CCCC4)c(=O)n2[nH]1,inactive: 16.7%
17,Cc1ccc(NC(=O)C2CCN(S(=O)(=O)c3ccc(N4CCCC4=O)cc3)CC2)cc1Cl,inactive: -5.72%
18,COc1ccc(S(=O)(=O)NCc2cccnc2)cc1NC(=O)c1ccccc1C,inactive: 0.378%
19,Cc1ccc(C(=O)NNC(=O)CSc2nc(N)cc(N)n2)cc1,inactive: 14%
20,N=C1SCC(=O)N1c1ccccc1Cl,inactive: -9.07%
21,COc1cccc(CNC(=O)Cc2ccc(-c3ccccc3)cc2)c1,inactive: 27.7%
22,Cc1ccc(C(=O)Nc2cccc(NC(=O)c3cccnc3)c2)cc1,inactive: -2.85%
23,OC(c1cccc(Cl)c1)c1ncc(-c2ccccc2Cl)[nH]1 (stereo not drawn),inactive: 7.51%
24,Cc1ccc(C2C3=C(CCCC3=O)N=C3c4ccccc4C(=O)C32)cc1 (stereo not drawn),inactive: -4.81%
25,CCc1nc2ccc(C(=O)NCc3ccc4c(c3)OCO4)cn2c1N(C)Cc1cccs1,inactive: 13.2%
26,CCCCCCn1c(=O)[nH]c2nc3cc(N)ccc3nc2c1=O,inactive: 14.7%
27,Cc1cc(C)c(S(=O)(=O)NCCCn2ccnc2)c(C)c1,inactive: 15.8%

row,Structure (SMILES),growth rescue (activation)
1,O=C(COc1ccccc1[N+](=O)[O-])N(Cc1ccccc1)c1ccccn1,inactive: 7.19%
2,COC(=O)C1=C(C)NC(=O)NC1c1ccco1 (stereo not drawn),inactive: 1.86%
3,CC1(C)C2CC=C(/C=N/NC(=O)c3ccc(O)cc3)C1C2 (stereo not drawn),inactive: 0.206%
4,CC1(C(=O)NS(=O)(=O)c2cccc(Cl)c2)CCN1C(=O)CC1CCCCC1 (stereo not drawn),inactive: -1.18%
5,Cc1nc(NCCc2ccc(F)cc2)c2nnn(Cc3ccccc3)c2n1,inactive: -7.4%
6,CCOC(=O)C(=Cc1c[nH]c2ccc(S(=O)(=O)N(C)C)cc12)C(=O)OCC,inactive: 8.08%
7,O=C1CCCC(O)=C1N=Nc1c(Cl)cc(Cl)cc1Cl,inactive: 8.39%
8,O=C(Cc1ccc(Cl)cc1)N/N=C/c1c(Cl)cccc1Cl,inactive: 0.0105%
9,O=C(O)C1(S(=O)(=O)c2ccc(Cl)cc2)CCC1,inactive: 0.773%
10,CCN(CC)C(=O)c1cccc(-c2csc(C(O)c3ccc(F)c(OC)c3)n2)c1 (stereo not drawn),inactive: 1.08%
11,COC(=O)c1ccc(COC(=O)C(CCS(C)(=O)=O)N2C(=O)c3ccccc3C2=O)cc1 (stereo not drawn),inactive: 12.4%
12,COc1ccc(Cl)cc1NC(=O)c1cc2c(=O)n3ccccc3nc2s1,inactive: 2.74%
13,O=C(O)C(C/C(=N/O)c1ccc(Br)cc1)P(=O)(c1ccccc1)c1ccccc1 (stereo not drawn),inactive: -5.19%
14,O=C(NCc1cccnc1)C1CCN(S(=O)(=O)c2cc([N+](=O)[O-])ccc2Cl)CC1,inactive: 15.4%
15,O=C(O)c1cc(S(=O)(=O)Nc2ccc(OCc3ccccc3)cc2)ccc1Br,inactive: 6.47%
16,Cn1c(CC(=O)Nc2ccc(F)cc2)nnc1SCC(=O)NC1CCCCC1,inactive: 12.3%
17,O=C1Nc2ccccc2Oc2cc(Oc3ccccc3)ccc21,inactive: 4.6%
18,COc1ccc(OCCN2CCC(C(=O)NC(c3ccc(C)cc3)c3ccccn3)CC2)cc1 (stereo not drawn),inactive: 13.8%
19,O=C(NCCCN=C1NS(=O)(=O)c2ccccc21)c1ccc(Cl)cc1,inactive: 1.13%
20,COc1ccc(/C=N/Nc2ncc(Br)cn2)c(OC)c1,inactive: 10.3%
21,Cc1ccc(CNc2nc3cc(-c4ccccc4)sc3c(=O)n2C)c(C)c1,inactive: 5.65%
22,CSc1ncccc1C(=O)OCC(=O)c1cccs1,inactive: 17.9%
23,COc1ccc(CCNC(=O)COC(=O)CCC(=O)c2cccs2)cc1OC,inactive: 8.51%
24,CCn1nc(C)c(CN2CCC(n3nccc3NC(=O)CCCc3ccccc3)CC2)c1C,inactive: -9.27%
25,O=C(NCC1CCCO1)c1nn2c(C(F)(F)F)cc(-c3ccc(Br)o3)nc2c1Br (stereo not drawn),inactive: 5.55%
26,O=c1c2sccc2[nH]c(=S)n1-c1ccccc1,inactive: -4.92%
